In PubChem BioAssay AID1645887 (National Center for Advancing Translational Sciences (NCATS), 2021):
Several values for one entry are separate records, joined by “and”; a condition that tells them apart may be missing. Equal entries are not always repeated. Screen size: about 16,000 compounds; about 40 (0.2%) were called active. Inconclusive results (about 1%) are left out. Calls follow the shape of the dose curve; as a rule, active = well fitted activation curve with a large enough effect; inconclusive = small, poorly fitted or top-dose-only effect, or another doubt; inactive = no such curve, though single readings can be large or run the other way. This is one part of the list.

Biological target: Rap guanine nucleotide exchange factor 4 (Homo sapiens) (UniProt Q8WZA2)
Assay: Validation qHTS for agonist of cAMP-regulated guanine nucleotide exchange factor 4 (EPAC2);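 as to activation: exchange makes BODIPY-GDP fluorescence drop when released from Rap1B; series mostly up to about 150 µM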
Conditions: EPAC2 Rap1B BODIPY-GDP exchange, fluorescence; activation: active compounds read high
In short: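 Signal normalized against 6.5 mM cAMP as agonist control. Mix of EPAC2 (100 nM), RAP1B-BODIPY-GDP (250 nM) and GDP (50 uM) was read kinetically at 480/540 nm, every 5 min over 30 min, after 5 min room-temperature incubation with compound.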
% is scaled to controls: 0 for no effect and ±100 for the full control effect; potency is read from the fitted curve at half-maximal effect.

UniProt Q8WZA2, sequence (Q8WZA2 whole entry, looked up): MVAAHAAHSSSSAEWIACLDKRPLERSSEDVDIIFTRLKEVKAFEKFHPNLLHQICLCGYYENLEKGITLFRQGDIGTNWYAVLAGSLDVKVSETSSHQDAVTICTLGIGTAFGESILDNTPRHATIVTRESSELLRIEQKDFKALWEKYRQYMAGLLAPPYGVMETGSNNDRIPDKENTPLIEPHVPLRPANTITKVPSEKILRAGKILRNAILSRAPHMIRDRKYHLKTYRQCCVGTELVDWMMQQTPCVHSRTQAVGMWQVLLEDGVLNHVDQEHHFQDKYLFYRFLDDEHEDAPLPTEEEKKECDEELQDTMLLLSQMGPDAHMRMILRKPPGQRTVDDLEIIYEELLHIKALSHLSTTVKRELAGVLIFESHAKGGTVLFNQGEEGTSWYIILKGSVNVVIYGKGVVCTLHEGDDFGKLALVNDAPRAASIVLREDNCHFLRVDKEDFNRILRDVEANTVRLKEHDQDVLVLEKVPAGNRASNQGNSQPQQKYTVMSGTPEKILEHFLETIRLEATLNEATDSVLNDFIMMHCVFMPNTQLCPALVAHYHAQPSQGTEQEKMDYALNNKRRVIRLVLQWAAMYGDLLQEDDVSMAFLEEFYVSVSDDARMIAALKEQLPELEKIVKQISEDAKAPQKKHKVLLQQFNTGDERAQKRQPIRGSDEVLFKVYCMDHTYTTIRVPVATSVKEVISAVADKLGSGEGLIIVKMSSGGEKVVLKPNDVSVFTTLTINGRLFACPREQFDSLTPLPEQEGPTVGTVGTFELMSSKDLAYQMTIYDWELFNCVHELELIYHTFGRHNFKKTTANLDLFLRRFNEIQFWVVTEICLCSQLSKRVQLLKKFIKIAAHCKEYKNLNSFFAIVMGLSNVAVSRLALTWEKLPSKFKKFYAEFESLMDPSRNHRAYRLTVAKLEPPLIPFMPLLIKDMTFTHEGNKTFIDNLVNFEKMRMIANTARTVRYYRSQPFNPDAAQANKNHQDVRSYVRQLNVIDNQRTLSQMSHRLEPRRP

| Structure (SMILES) | activation | Potency |
| --- | --- | --- |
| Clc1ccc(CSC(Cn2ccnc2)c2ccc(Cl)cc2Cl)cc1 (stereo unspecified) | inactive: -14.8% and inactive: 0.906% | – |
| O=C(CN1CCCCC1c1cccnc1)c1ccccc1 (stereo unspecified) | inactive: 6.09% | – |
| CN1c2ccccc2C(NCCCCCCC(=O)O)c2ccc(Cl)cc2S1(=O)=O (stereo unspecified) | inactive: 0.0396% | – |
| CCCCCCC(=O)O[C@H]1CC[C@H]2[C@@H]3CC[C@H]4CC(=O)C=C(C)[C@]4(C)[C@H]3CC[C@]12C | inactive: -20.2% | – |
| Oc1c(Br)cc(Br)cc1Br | inactive: -33.5% | – |
| COc1cc(C[C@H](C)N)c(OC)cc1Br | inactive: -10.4% | – |
| NCCc1cc(O)c(O)cc1O | inactive: 18.6% | – |
| C#CCOS(=O)OC1CCCCC1Oc1ccc(C(C)(C)C)cc1 (stereo unspecified) | inactive: -23.9% | – |
| CC(C)C1C(=O)N2CCCC2[C@]2(O)O[C@@](NC(=O)[C@@H]3C=C4c5cccc6[nH]cc(c56)C[C@H]4N(C)C3)(C(C)C)C(=O)N12 (stereo partly specified) | inactive: 13.6% | – |
| CCC(=O)O[C@@](Cc1ccccc1)(c1ccccc1)[C@@H](C)CN(C)C | inactive: -14.9% | – |
| CN1CC[C@@]23CCCCC2C1Cc1ccc(O)cc13 (stereo partly specified) | inactive: -9.33% | – |
| NNc1ccccc1 | inactive: -13.2% | – |
| C[C@]12Cc3cn4c(nc3C=C1CCC1C2CC[C@@]2(C)[C@H]1CC[C@@]2(O)C#N)nc1ccccc14 (stereo partly specified) | inactive: -3.78% | – |
| C=C(C)c1cc2cc(C(C)=O)c(O)cc2o1 | inactive: -4.23% and inactive: -25.5% | – |
| CN1[C@H]2CC[C@@H]1[C@@H](C(=O)O)[C@@H](OC(=O)c1ccccc1)C2 | inactive: 5.23% and inactive: -2.66% | – |
| Cc1cc(OC(=O)N2CCCCC2)c(C(C)C)cc1[N+](C)(C)C | inactive: -5.78% | – |
| CC(=O)O[C@@H]1C[C@@]2(C)C(c3ccoc3)C[C@H]3O[C@]32[C@]2(C)C(=O)C(O)=C3C(C)(C)C(=O)C=C[C@]3(C)C12 (stereo partly specified) | inactive: 6.07% | – |
| CC(C)OC(=O)Nc1cccc(Cl)c1 | inactive: -17.9% | – |
| c1ccc2nc(N3CCNCC3)ccc2c1 | inactive: 6.75% and inactive: -5.41% and inactive: -15.7% | – |
| Clc1ccc(CO/N=C(\Cn2ccnc2)c2ccc(Cl)cc2Cl)c(Cl)c1 | inactive: 14.4% | – |
| C=C[C@H]1CN2CCC1C[C@@H]2C(O)c1ccnc2ccccc12 (stereo partly specified) | inactive: -19.9% | – |

| Structure (SMILES) | activation | Potency |
| --- | --- | --- |
| C[C@@H](N)C(=O)c1ccccc1 | inactive: -7.1% | – |
| F/C(COc1ccc2c(c1)[nH]c1ccccc12)=C1/CN2CCC1CC2 | inactive: -15.2% | – |
| O=C1NCN(c2ccccc2)C12CCN(CC1COc3ccccc3O1)CC2 (stereo unspecified) | inactive: 0.612% and inactive: -9.94% and inactive: -8.61% | – |
| O=C(Oc1ccccc1)N1CCC2(CCN(Cc3ccncc3)CC2)CC1 | inactive: -8.43% | – |
| COc1c2c(cc3c1OCO3)C13C=CC(OC)CC1N(C2)CC3O (stereo unspecified) | inactive: -3.21% | – |
| CC(=O)OC1CN2CCC1CC2 (stereo unspecified) | inactive: 13.7% | – |
| CC(C)CN1CCCC2(CCN(C(=O)Oc3ccccc3)CC2)C1 | inactive: 3.97% | – |
| CC1CC[C@@]2(OC1)OC1C(O)C3C4CC[C@H]5CC(O[C@@H]6O[C@@H](CO)[C@H](OC7OC(CO)C(O)C(OC8OCC(O)C(O)[C@H]8O)[C@@H]7O[C@@H]7OC(CO)[C@H](O)[C@@H](O[C@@H]8OC(CO)C(O)C(O)C8O)C7O)C(O)C6O)C(O)C[C@]5(C)C4CC[C@]3(C)C1C2C (stereo partly specified) | inactive: 11% | – |
| CC(CCc1ccccc1)NC(C)C(O)c1ccc(O)cc1 (stereo unspecified) | inactive: -1.06% and inactive: 24.8% and inactive: -16% | – |
| CCCOC(=O)Cc1ccc(OCC(=O)N(CC)CC)c(OC)c1 | inactive: -40.3% | – |
| CCC(=O)O[C@]1(c2ccccc2)CCN(C)C[C@H]1C | inactive: -4.23% | – |
| C[C@]12CC[C@H](OS(=O)(=O)O)CC1=CC[C@@H]1[C@@H]2CC[C@]2(C)C(=O)CC[C@@H]12 | inactive: 29.2% | – |
| Cc1o[nH]c(=O)c1C[C@@H](N)C(=O)O | inactive: -14.3% | – |
| NC(=NCCC[C@H](N)C(=O)O)N[N+](=O)[O-] | inactive: -0.298% and inactive: -15.8% | – |
| O=c1[nH]cc(N(CCCl)CCCl)c(=O)[nH]1 | – | active: 100 µM |
| Cc1c(C(=O)c2cccc3ccccc23)c2cccc3c2n1[C@H](CN1CCOCC1)CO3 | inactive: -14.1% and inactive: -42.9% | – |
| O=Cc1ccccc1 | inactive: 19.2% and inactive: -16.8% | – |
| CCCN(C/C=C/I)C1CCc2ccc(O)cc2C1 (stereo unspecified) | inactive: -8.74% | – |
| N=C(N)c1ccc(CS(=O)(=O)F)cc1 | inactive: -36.6% | – |
| COP(=S)(OC)Oc1ccc([N+](=O)[O-])cc1 | inactive: 0.0624% | – |
